Source: the supplement of paper PMC3334620
The full ranking holds about 33,000 sequences; the median of “E-score (-0.5 to 0.5)” is about -0.054, and the highest 2% start at about 0.35. The list shows a part of the results.

Molecular target: T1, Stb5 (UniProt P38699)
T1 sequence: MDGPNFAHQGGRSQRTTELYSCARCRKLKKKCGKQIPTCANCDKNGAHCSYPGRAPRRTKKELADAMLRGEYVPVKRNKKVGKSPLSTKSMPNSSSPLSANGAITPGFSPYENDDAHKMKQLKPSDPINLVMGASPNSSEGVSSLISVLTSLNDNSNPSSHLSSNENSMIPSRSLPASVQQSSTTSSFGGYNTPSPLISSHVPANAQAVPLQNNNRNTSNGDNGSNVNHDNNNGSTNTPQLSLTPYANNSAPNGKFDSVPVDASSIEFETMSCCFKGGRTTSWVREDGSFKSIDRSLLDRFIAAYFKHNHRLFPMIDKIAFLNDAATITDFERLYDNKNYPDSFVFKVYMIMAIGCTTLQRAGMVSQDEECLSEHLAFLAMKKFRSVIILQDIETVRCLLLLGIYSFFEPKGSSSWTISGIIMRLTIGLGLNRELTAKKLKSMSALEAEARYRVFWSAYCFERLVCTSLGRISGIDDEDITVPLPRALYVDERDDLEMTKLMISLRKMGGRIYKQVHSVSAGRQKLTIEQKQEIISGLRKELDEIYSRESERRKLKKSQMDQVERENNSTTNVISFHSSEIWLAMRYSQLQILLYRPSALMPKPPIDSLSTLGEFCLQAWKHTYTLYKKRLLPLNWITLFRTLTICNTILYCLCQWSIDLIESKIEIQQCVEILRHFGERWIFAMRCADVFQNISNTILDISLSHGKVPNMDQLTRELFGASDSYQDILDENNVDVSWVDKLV
Assay: PBM E-score (8-mer binding enrichment) (E-score (-0.5 to 0.5)); higher = stronger / more preferred TF binding; most listed sequences are background and not binding sites
Conditions: protein concentration: 200 nM; construct: GST-full length
Method in brief: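 Detection of bound protein used fluorescent anti-GST, with scans normalised by masliner. The proteins were GST-tagged yeast transcription factors applied at about 100-200 nM to universal all-10-mer Agilent arrays made double-stranded by primer extension. Each ungapped eight-base word, pooled with its reverse complement, was scored with an E-score from the Universal PBM Analysis Suite.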

| Sequence | PBM E-score |
| --- | --- |
| GAACTGCA | -0.157 |
| GATATCAA | -0.0352 |
| CATGGGAG | -0.174 |
| CAAGACTA | -0.234 |
| GACTCCAA | -0.0167 |
| TGTGGCAA | 0.0162 |
| CCTGACCA | -0.291 |
| GCTACAGA | -0.183 |
| CGCGGTAG | 0.249 |
| CAGACTTA | -0.303 |
| AGATTGAA | 0.0136 |
| TCTCCGAA | 0.154 |
| AACATACC | 0.123 |
| ACAGGATA | -0.14 |
| TCATACCA | -0.0581 |
| GCGGTAAA | 0.313 |
| ATACCTCC | 0.288 |
| ACGCTCCA | -0.077 |
| ACCTCCCC | 0.0574 |
| CCCGCCCG | 0.298 |
| AGCTGACC | -0.174 |
| CGCGAACG | 0.0406 |
| AAACGATC | -0.234 |
| GAATAGGC | -0.066 |
| CGGCCTCC | 0.129 |

| Sequence | PBM E-score |
| --- | --- |
| ACCTACGC | -0.024 |
| AAGGCCGA | 0.46 |
| AGTAACAT | -0.0434 |
| AGACGTAG | -0.232 |
| ATGGACGC | -0.0145 |
| GATCCTCA | -0.147 |
| AGGGCACA | -0.323 |
| CAGTCTCA | -0.196 |
| ATGCCAGC | -0.0761 |
| GGGATCCC | 0.0894 |
| AGCATGAT | -0.112 |
| ACTACTGA | -0.267 |
| GAAGGTGA | 0.0105 |
| AAAACTTC | 0.027 |
| GGGATGAA | 0.0485 |
| AGTGCTTC | -0.198 |
| AGCATTAC | 0.0205 |
| ACTGCCGG | 0.269 |
| AAAGTATC | 0.0263 |
| ATAAACCA | -0.078 |
| ATCGCCTC | -0.271 |
| AATCTCCG | 0.423 |
| TGCCTGAA | -0.243 |
| CTCGGCCC | 0.079 |
| CTCCGATC | 0.327 |

| Sequence | PBM E-score |
| --- | --- |
| ACTCACAG | -0.178 |
| AGGAATAG | -0.067 |
| CATTTCAA | -0.2 |
| GAGGCATA | -0.0863 |
| GCTGGAAA | -0.0514 |
| TGTCGAAA | -0.315 |
| CGAACTGC | -0.0387 |
| CGACTTAA | -0.0485 |
| AGAAACTG | -0.0721 |
| GGCAATAA | 0.313 |
| CTCCTGCC | -0.135 |
| ATCTAGTG | -0.0673 |
| AGTAAGGG | 0.00422 |
| CAGATTGA | -0.104 |
| GGTGGAGA | -0.177 |
| CAATAGTG | 0.164 |
| GGAAAGCA | 0.024 |
| CTGGTGAC | -0.0304 |
| GATCAAGC | -0.136 |
| AGGGGTGG | -0.15 |
| CAAGACTG | -0.252 |
| CACACGTG | -0.185 |
| GAGCACCA | -0.263 |
| CCGCCAAG | 0.275 |
| CATCCGTA | 0.164 |

| Sequence | PBM E-score |
| --- | --- |
| CGCCTGGC | 0.00215 |
| ACAAGACG | -0.0895 |
| CCGATTTA | 0.271 |
| ACCTAAGA | -0.169 |
| AGGAATAA | -0.0025 |
| ACAAATCT | -0.16 |
| ATACCATG | 0.00967 |
| ACCCTGCC | -0.196 |
| GGCTCGCA | -0.106 |
| GCACAATA | -0.048 |
| ATTGGAAG | 0.0232 |
| GATGCGAA | -0.0255 |
| ATGTATCC | 0.134 |
| CGTTCTGC | 0.0411 |
| ACGTGTGG | -0.197 |
| CTCGGCAC | 0.187 |
| AGTTGTGG | -0.192 |
| ACCAAGCC | -0.0987 |
| AAGGCTAC | -0.214 |
| CCCAGAAA | -0.274 |
| TAGCCGGA | 0.279 |
| GGGCAAAC | 0.161 |
| AACGACAG | -0.205 |
| GACGCCAA | -0.103 |
| GAAGAGTA | -0.108 |

| Sequence | PBM E-score |
| --- | --- |
| AAATAGAG | -0.00964 |
| CCAAGCTA | -0.109 |
| CGGGAACA | 0.276 |
| AGTTTAAT | 0.0203 |
| AATCTAAG | -0.184 |
| TCTTGGCA | -0.0429 |
| AAACCGCT | 0.0494 |
| CCTGAGCC | -0.156 |
| ACATGGTC | -0.137 |
| CCAACATC | 0.00274 |
| ACACGTCT | -0.11 |
| AAACGAGC | -0.209 |
| CTACACCA | 0.00298 |
| ATTCACCA | -0.0265 |
| CTTGTACA | -0.212 |
| GATGAGGA | -0.0414 |
| AGGCGTTC | -0.221 |
| TATAGACA | -0.178 |
| GTATGAAA | 0.087 |
| ATTCGAGC | -0.227 |
| GGATTGAA | 0.116 |
| GGGGGTAA | 0.248 |
| ACAGGGTA | -0.168 |
| AAGTAACG | 0.0665 |
| GGGGGGGA | -0.24 |

| Sequence | PBM E-score |
| --- | --- |
| AAGTTAGT | 0.0431 |
| AACTACTG | -0.0249 |
| CACGAGTA | -0.0773 |
| GGGGACAA | 0.0894 |
| TCACATGA | -0.199 |
| GAATACGA | -0.212 |
| ATGGATAG | -0.0412 |
| AGTTGCGC | 0.0696 |
| ATAGACAA | -0.202 |
| AACAGGGT | -0.0556 |
| CCCCTGCC | -0.17 |
| CGATAACG | 0.058 |
| ACCAAAAT | 0.0608 |
| CATGCATC | 0.0354 |
| CTCAAGTA | -0.174 |
| ACCCCGGC | 0.343 |
| ACCCCCCC | -0.295 |
| CAGATACA | -0.0501 |
| GATAACGC | 0.174 |
| AGGCCAGC | -0.248 |
| CCTGCGGA | 0.111 |
| CAACATCA | -0.161 |
| TAGGTACA | -0.132 |
| CGCTGCCA | 0.0728 |
| ACGTTTAT | -0.0891 |

| Sequence | PBM E-score |
| --- | --- |
| AGCAGACG | 0.0811 |
| GTCTTTGA | -0.0135 |
| CCACGATC | -0.264 |
| GTAGCCAA | -0.105 |
| CCAGAGAG | -0.284 |
| CGCTGGCC | -0.0183 |
| AGCAGCTG | -0.185 |
| CGAGAGTA | -0.133 |
| CGACAGTC | -0.0974 |
| AGTATAAG | -0.0823 |
| GTAGGCGA | -0.0824 |
| AAACCGTT | 0.0437 |
| ATAAGATA | 0.071 |
| CAGTGTGC | -0.203 |
| CAGAGTGA | -0.0472 |
| ACACTCCG | 0.265 |
| AGGATGGC | 0.0229 |
| AAGACCAC | -0.148 |
| CTCATTGA | -0.183 |
| AACTCGAT | -0.0673 |
| CGATGCCC | -0.012 |
| ATTGGAGA | -0.0644 |
